# In PubChem BioAssay AID651820 (National Center for Advancing Translational Sciences (NCATS), 2012):
# “And” between values parts separate entries of the source, which are not always exact repeats. Equal entries are not always repeated. The campaign covered roughly 340,000 compounds. About 12,000 (3.5%) were called active. Inconclusive results, whose numbers are uncertain, are shown with a selection of clear calls. Calls come from the whole dose curve; as a rule, active = well fitted inhibition curve with a large enough effect; inconclusive = small, poorly fitted or top-dose-only effect, or another doubt; inactive = no such curve, though single readings can be large or run the other way. Potencies of inconclusive entries are doubtful fits and often do not repeat.
# Test: qHTS Assay for Inhibitors of Hepatitis C Virus (HCV)
# Settings: Huh7.5.1 HCVcc-Cre (HCVcc is cell-culture hepatitis C virus) infection, luciferase reporter, 44 h; activity change, negative = inhibition: at 41.8 µM (top of the series) unless noted
# Summary of the method: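 Cells (1,000/well) were plated 4 h before compound, then infected with HCVcc-Cre virus (~0.5 moi). After 44 h further culture, infection was read as luciferase luminescence following a 15 min substrate incubation at room temperature.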
# % is set by controls: 0 for no effect and ±100 for the full control effect; potency is the fitted concentration of half-maximal effect; tags give direction and shape of the fitted curve.
SMILES,Potency,"activity change, negative = inhibition"
c1cc(OCCN2CC2)ccn1,"inconclusive: 31.6 µM [inhibitor, single point]",
O=S(=O)(Nn1cnnc1)c1ccccc1,"inconclusive: 35.5 µM [inhibitor, partial curve, poor fit]",
CCOC(=O)N/C(N)=N/c1nc2ccccc2s1,"inconclusive: 4.47 µM [inhibitor, partial curve]",
COc1ccc(Cn2c(N)c(C(=O)NCc3ccco3)c3nc4ccccc4nc32)cc1,"inconclusive: 8.91 µM [inhibitor, partial curve]",
Cc1ccc(-n2c(O)c(/C=N/Nc3ccc(S(=O)(=O)N4CCOCC4)cc3[N+](=O)[O-])c3ccccc3c2=O)c(C)c1,active: 11.2 µM,
CCOCCCNc1nc2c([nH]1)c(=O)n(C)c(=O)n2C,"inconclusive: 5.62 µM [inhibitor, partial curve]",
CC1CCCC(NC(=O)CN(C)CC(=O)Nc2cccc(F)c2)C1C (stereo unspecified),"inconclusive: 11.2 µM [inhibitor, partial curve]",
Cc1ccc(CSc2nc3sc(C)c(C)c3c(=O)n2Cc2ccco2)cc1,,inactive: 9.26%
Cc1nc2ccccc2n1CCCOc1ccccc1,"inconclusive: 31.6 µM [inhibitor, single point]",
COc1ccc(-c2csc(NC(=O)CC(NC(C)=O)c3ccccc3)n2)cc1OC (stereo unspecified),"inconclusive: 11.2 µM [inhibitor, partial curve]",
CC(=O)c1ccc(N2CCN(C(=O)CCCn3c(=O)[nH]c4ccc(Br)cc4c3=O)CC2)cc1,"inconclusive: 31.6 µM [inhibitor, single point]",
O=C(Nc1ccccc1O)c1ccc(C(=O)c2ccccc2)o1,"inconclusive: 31.6 µM [inhibitor, single point]",
CC(C)(C)OC(=O)N1CCC(C(=O)N2CCOCC2)CC1,,inactive: 0.767%
COc1ccc(CNC(=O)COC(=O)c2cc(-c3cccs3)nc3ccccc23)cc1OC,"inconclusive: 22.4 µM [inhibitor, single point]",
Cc1ccccc1-n1ncc2c1CC(C)(C)CC2NC(=O)C1CCC1 (stereo unspecified),,inactive: 5.64%
CCC(=O)NC(c1ccc(OC)c(OC)c1)c1cc(Cl)c2cccnc2c1O (stereo unspecified),"inconclusive: 2 µM [inhibitor, full curve]",
C=C(C)Cn1c(C2CC(=O)N(Cc3ccccc3)C2)nc2ccccc21 (stereo unspecified),"inconclusive: 8.91 µM [inhibitor, partial curve]",
C=C(C(=O)c1ccccc1)C(NC(C)(C)C)c1ccccc1 (stereo unspecified),active: 3.55 µM,
COc1cc(CNCCc2ccccc2)ccc1OCc1ccc(Cl)nc1,"inconclusive: 25.1 µM [inhibitor, single point]",
Cc1nc2ccc(Br)cc2c2c1CC(CO)O2 (stereo unspecified),,inactive: -17.7%
O=C(CN1CCN(Cc2ccccc2Cl)CC1)N/N=C/C=C\c1ccccc1[N+](=O)[O-],"inconclusive: 11.2 µM [inhibitor, single point]",
COc1ccc(-c2csc(Nc3ncccc3C)n2)cc1,"inconclusive: 31.6 µM [inhibitor, single point]",
O=C(NCCCn1ccnc1)c1nn2c(C(F)(F)F)cc(-c3ccc(Br)cc3)nc2c1Cl,"inconclusive: 6.31 µM [inhibitor, partial curve]",
COCCNC(=O)c1c(N)n(-c2cccc(C)c2)c2nc3ccccc3nc12,active: 11.2 µM,

SMILES,Potency,"activity change, negative = inhibition"
COc1ccc(NC(=S)Nc2ccc3nsnc3c2)cc1,"inconclusive: 31.6 µM [inhibitor, single point]",
C[C@H]1CN([C@@H](C)CO)C(=O)Cc2cc(NC(=O)CCC(F)(F)F)ccc2O[C@H]1CN(C)S(=O)(=O)c1ccc(Cl)cc1,"inconclusive: 1.58 µM [inhibitor, partial curve]",
Cn1c(CNC(=O)Nc2ccccc2)nnc1SCc1ccccc1,,inactive: -15.5%
c1ccc(COn2nnc3ccccc32)c(COn2nnc3ccccc32)c1,"inconclusive: 7.08 µM [inhibitor, partial curve]",
CCCCOc1ccc(C(=O)Nc2cc(C)c(OCC(=O)N3CCOCC3)c(C)c2)cc1,"inconclusive: 12.6 µM [inhibitor, partial curve]",
c1ccc(N2CCN(Cc3ccnc4ccccc34)CC2)cc1,active: 28.2 µM,
COc1ccc(-c2nc(SCc3ccccc3)n(S(C)(=O)=O)n2)cc1,active: 2.82 µM,
COc1ccc2nc(NC(=O)C3CCN(C(=O)c4ccc(F)cc4)CC3)sc2c1,"inconclusive: 35.5 µM [inhibitor, partial curve]",
COc1ccc(C(=O)NC2CCCN(Cc3ccc(Cl)cc3)C2)c(OC)c1 (stereo unspecified),"inconclusive: 22.4 µM [inhibitor, partial curve]",
CCc1ccc(N2CC(C(=O)N/N=C/c3cc([N+](=O)[O-])ccc3O)CC2=O)cc1 (stereo unspecified),"inconclusive: 31.6 µM [inhibitor, single point]",
COc1ccc(C(=O)NNC(=O)CNC(=O)C2CCCCC2)cc1,"inconclusive: 5.62 µM [inhibitor, single point]",
CCCc1nc2oc(C(=O)c3ccccc3)c(N)c2c2c1COC(C)(C)C2,"inconclusive: 31.6 µM [inhibitor, single point]",
CC(C)C[C@H]1CN=C(Nc2ccccc2)N1CCCC1CCCC1,"inconclusive: 28.2 µM [inhibitor, single point]",
COc1ccc(/C=N/c2nc3ccccc3n2CCN2CCCCC2)cc1OC,,inactive: -3.3%
Cc1ccc(CC(=O)OCCNC(=O)c2cccnc2)cc1,,inactive: 21.3%
CON(c1nc(Cl)nc(N(C)C)n1)S(=O)(=O)c1ccccc1Cl,,inactive: 2.02%
O=C(CSc1ncnc2ccccc12)c1ccc2c(c1)OCCO2,"inconclusive: 11.2 µM [inhibitor, partial curve, poor fit]",
COc1ccccc1NS(=O)(=O)c1cc(N=N/C(C(=O)Nc2ccc(Cl)cc2)=C(/C)O)ccc1C,"inconclusive: 1.41 µM [inhibitor, partial curve]",
O=C1c2ccccc2NC(c2ccccc2)N1Cc1ccco1 (stereo unspecified),,inactive: -3.79%
O=C(Nc1nc(-c2ccccn2)cs1)C1CCCC1,,inactive: -9.11%
Cc1[nH]c2ccccc2c1/C=N/NC(=O)c1cc(-c2cccs2)[nH]n1,active: 11.2 µM,
COc1cc(OC)cc(N(C(=O)C2COc3ccccc3O2)C(C(=O)NC2CCCCC2)c2ccc(O)cc2)c1 (stereo unspecified),"inconclusive: 22.4 µM [inhibitor, single point]",
CC12CCC(=O)N1C(C(=O)Nc1ccc(Br)cc1Cl)CS2 (stereo unspecified),"inconclusive: 2 µM [inhibitor, single point]",
O=C(CCCc1ccncc1)c1ccccc1,,inactive: 1.8%

SMILES,Potency,"activity change, negative = inhibition"
OCCCn1c(C2CCCN2c2nc(-c3ccc(Cl)cc3)cs2)nc2cc(Cl)c(Cl)cc21 (stereo unspecified),"inconclusive: 2.51 µM [inhibitor, full curve]",
Cc1cccc(N2CCN(C(=O)C3COc4ccccc4O3)CC2)c1C (stereo unspecified),"inconclusive: 31.6 µM [inhibitor, single point]",
COC(=O)C1=C(c2cccc(OCc3ccccc3)c2)C[C@@H]2CC[C@H]1N2C(=O)NCc1cccc(OC)c1,"inconclusive: 7.94 µM [inhibitor, partial curve]",
CCOC(=O)c1c(NC(=O)c2cccs2)sc2c1CCN(C(=O)OCC)C2,"inconclusive: 2.82 µM [inhibitor, partial curve] and inconclusive: 2 µM [inhibitor, full curve]",
CC/C(=N\Nc1ccccc1)c1c(O)n(C)c(=O)n(C)c1=O,,inactive: -8.49%
Cc1c(C(=O)NCc2ccco2)sc2nc(-c3ccccc3)cn12,active: 10 µM,
O=C(Nc1ccc(NC(=O)c2cccnc2Cl)cc1)c1cccc(Cl)c1,"inconclusive: 22.4 µM [inhibitor, single point]",
COc1cccc(-c2nn3c(-c4cc(C)[nH]n4)nnc3s2)c1,,inactive: 0.905%
O=C(OCc1nnc(-c2ccccc2)o1)c1cc(F)c(F)cc1Cl,,inactive: 1.01%
CCOC(=O)COc1coc(CN2CCN(c3ccccc3)CC2)cc1=O,,inactive: 17%
O=C(Nc1nccs1)c1cnccn1,,inactive: 13.1%
O=C1c2ccccc2NC(c2cn[nH]c2-c2ccc(Cl)cc2)N1O (stereo unspecified),"inconclusive: 11.2 µM [inhibitor, single point]",
O=C(COc1ccc2c3c(c(=O)oc2c1)CCC3)N1CCN(c2ccc(F)cc2)CC1,"inconclusive: 10 µM [inhibitor, partial curve, poor fit]",
COc1ccccc1NS(=O)(=O)c1cc(NC(=O)Cc2n[nH]c(=O)c3ccccc23)ccc1Cl,active: 3.16 µM,
O=C(Cc1csc(Nc2nc(=S)[nH]c3ccccc23)n1)NCc1cccc(Cl)c1,"inconclusive: 2.51 µM [inhibitor, full curve]",
CCOc1cc2ccccc2cc1C(=O)Nc1ccccn1,"inconclusive: 0.501 µM [inhibitor, full curve, poor fit]",
COC(=O)C1CN(S(=O)(=O)c2ccc(NC(C)=O)cc2)CCS1 (stereo unspecified),,inactive: 17.6%
C=CC[C@@H](CC(=O)N[C@@H](CO)Cc1ccccc1)C(=O)NC[C@H](OC(=O)[C@@H](CC=C)Cc1ccc(F)cc1)c1ccccc1,,inactive: 21.2%
O=C(NC1CC1)C1CC(=O)N(c2cccc(Cl)c2)C1 (stereo unspecified),,inactive: 5.88%
Cc1ccc2nc(-c3cccc(N)c3)oc2c1,,inactive: -20.4%
COc1ccc(NC(=O)CNC(=O)Cn2c(C)cc3ccccc3c2=O)cc1OC,"inconclusive: 31.6 µM [inhibitor, partial curve, poor fit]",
CCc1nc2ccccc2c(NC(=O)CN2CC(C)CC(C)C2)c1C (stereo unspecified),,inactive: -12%
Cc1ccc(-c2nc(Nc3cccc(C)c3)sc2CC(=O)O)cc1,"inconclusive: 31.6 µM [inhibitor, single point]",
